# The supplement of paper PMC8728848
# The other results are listed elsewhere or left out.
# B1: Cohesin-hLangerin (Homo sapiens) (protein)
# chain: LDDLDAVRIKVDTVNAKPGDTVRIPVRFSGIPSKGIANCDFVYSYDPNVLEIIEIEPGDIIVDPNPDKSFDTAVYPDRKIIVFLFAEDSGTGAYAITKDGVFATIVAKVKEGAPNGLSVIKFVEVGGFANNDLVEQKTQFFDGGANVGDTTEPATPTTPVTTPTTTDDLDAASYPRFMGTISDVKTNVQLLKGRVDNISTLDSEIKKNSDGMEAAGVQIQMVNESLGYVRSQFLKLKTSVEKANAQIQILTRSWEEVSTLNAQIPELKSDLEKASALNTKIRALQGSLENMSKLLKRQNDILQVVSQGWKYFKGNFYYFSLIPKTWYSAEQFCVSRNSHLTSVTSESEQEFLYKTAGGLIYWIGLTKAGMEGDWSWVDDTPFNKVQSARFWIPGEPNNAGNNEHCGNIKAPSLQAWNDAPCDKTFLFICKRPYVPSEPHHHHHH
# Experiments:
# Experiment in all cases: glycan array binding signal (z-score within array); higher = stronger binding
# Details in all cases: glycan notation: IUPAC condensed, linker removed
# [1] = target: Gal(b1-3)GlcNAc(b1-6)[Gal(b1-3)]GalNAc
# In short: (§1)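 The binding signal is a Z-score computed within each array. Data were drawn from 3228 arrays in the Consortium for Functional Glycomics database, restricted to those with a known protein sequence. Scores were averaged over arrays of the same protein sequence at different concentrations or buffers, and over linkers, and negative values can be taken as non-binding.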
# Gal(b1-3)GlcNAc6S = target: Gal(b1-3)GlcNAc6S
# In short: as §1
# [2] = target: Gal(b1-3)[Fuc(a1-4)]GlcNAc
# In short: as §1
# [3] = target: Gal(b1-3)[Fuc(a1-4)]GlcNAc(b1-2)Man
# In short: as §1
# [4] = target: Gal(b1-3)[Fuc(a1-4)]GlcNAc(b1-2)Man(a1-3)[Gal(b1-3)[Fuc(a1-4)]GlcNAc(b1-2)Man(a1-6)]Man(b1-4)GlcNAc(b1-4)[Fuc(a1-6)]GlcNAc
# In short: as §1
# [5] = target: Gal(b1-3)[Fuc(a1-4)]GlcNAc(b1-3)Gal(b1-3)[Fuc(a1-4)]GlcNAc
# In short: as §1
# [6] = target: Gal(b1-3)[Fuc(a1-4)]GlcNAc(b1-3)Gal(b1-4)[Fuc(a1-3)]GlcNAc
# In short: as §1
# [7] = target: Gal(b1-3)[Fuc(a1-4)]GlcNAc(b1-6)GalNAc
# In short: as §1
# [8] = target: Gal(b1-3)[GlcNAc(b1-6)]GalNAc
# In short: as §1
# [9] = target: Gal(b1-3)[Neu5Ac(a2-6)]GalNAc
# In short: as §1
# [10] = target: Gal(b1-3)[Neu5Ac(a2-6)]GlcNAc(b1-4)Gal(b1-4)Glc
# In short: as §1
# [11] = target: Gal(b1-3)[Neu5Ac(b2-6)]GalNAc
# In short: as §1
# Gal(b1-4)Gal = target: Gal(b1-4)Gal
# In short: as §1
# [12] = target: Gal(b1-4)GalNAc(a1-3)[Fuc(a1-2)]Gal(b1-4)GlcNAc
# In short: as §1
# [13] = target: Gal(b1-4)GalNAc(b1-3)[Fuc(a1-2)]Gal(b1-4)GlcNAc
# In short: as §1
# Gal(b1-4)Glc = target: Gal(b1-4)Glc
# In short: as §1
# Gal(b1-4)Glc6S = target: Gal(b1-4)Glc6S
# In short: as §1
# Gal(b1-4)GlcNAc = target: Gal(b1-4)GlcNAc
# In short: as §1
# [14] = target: Gal(b1-4)GlcNAc(a1-6)Gal(b1-4)GlcNAc
# In short: as §1
# Gal(b1-4)GlcNAc(b1-2)Man = target: Gal(b1-4)GlcNAc(b1-2)Man
# In short: as §1
# [15] = target: Gal(b1-4)GlcNAc(b1-2)Man(a1-3)Man(b1-4)GlcNAc(b1-4)GlcNAc
# In short: as §1
# [16] = target: Gal(b1-4)GlcNAc(b1-2)Man(a1-3)[Gal(b1-4)GlcNAc(b1-2)Man(a1-6)]Man(b1-4)GlcNAc(b1-4)GlcNAc
# In short: as §1
# [17] = target: Gal(b1-4)GlcNAc(b1-2)Man(a1-3)[Gal(b1-4)GlcNAc(b1-2)Man(a1-6)]Man(b1-4)GlcNAc(b1-4)[Fuc(a1-6)]GlcNAc
# In short: as §1
# [18] = target: Gal(b1-4)GlcNAc(b1-2)Man(a1-3)[Gal(b1-4)GlcNAc(b1-2)Man(a1-6)][Gal(b1-4)GlcNAc(b1-4)]Man(b1-4)GlcNAc(b1-4)[Fuc(a1-6)]GlcNAc
# In short: as §1
# [19] = target: Gal(b1-4)GlcNAc(b1-2)Man(a1-3)[Gal(b1-4)GlcNAc(b1-2)Man(a1-6)][GlcNAc(b1-4)]Man(b1-4)GlcNAc(b1-4)[Fuc(a1-6)]GlcNAc
# In short: as §1
# [20] = target: Gal(b1-4)GlcNAc(b1-2)Man(a1-3)[GlcNAc(b1-2)Man(a1-6)]Man(b1-4)GlcNAc(b1-4)GlcNAc
# In short: as §1
# [21] = target: Gal(b1-4)GlcNAc(b1-2)Man(a1-3)[GlcNAc(b1-4)][Gal(b1-4)GlcNAc(b1-2)Man(a1-6)]Man(b1-4)GlcNAc(b1-4)GlcNAc
# In short: as §1
# [22] = target: Gal(b1-4)GlcNAc(b1-2)Man(a1-3)[Man(a1-6)]Man(b1-4)GlcNAc(b1-4)GlcNAc
# In short: as §1
# [23] = target: Gal(b1-4)GlcNAc(b1-2)Man(a1-6)Man(b1-4)GlcNAc(b1-4)GlcNAc
# In short: as §1
# [24] = target: Gal(b1-4)GlcNAc(b1-2)Man(a1-6)[GlcNAc(b1-2)Man(a1-3)]Man(b1-4)GlcNAc(b1-4)GlcNAc
# In short: as §1
# [25] = target: Gal(b1-4)GlcNAc(b1-2)Man(a1-6)[Man(a1-3)]Man(b1-4)GlcNAc(b1-4)GlcNAc
# In short: as §1
# [26] = target: Gal(b1-4)GlcNAc(b1-2)[Gal(b1-4)GlcNAc(b1-4)]Man(a1-3)[Gal(b1-4)GlcNAc(b1-2)Man(a1-6)]Man(b1-4)GlcNAc(b1-4)GlcNAc
# In short: as §1
# [27] = target: Gal(b1-4)GlcNAc(b1-2)[Gal(b1-4)GlcNAc(b1-4)]Man(a1-3)[Gal(b1-4)GlcNAc(b1-2)[Gal(b1-4)GlcNAc(b1-6)]Man(a1-6)]Man(b1-4)GlcNAc(b1-4)GlcNAc
# In short: as §1
# [28] = target: Gal(b1-4)GlcNAc(b1-2)[Gal(b1-4)GlcNAc(b1-4)]Man(a1-3)[GlcNAc(b1-4)][Gal(b1-4)GlcNAc(b1-2)Man(a1-6)]Man(b1-4)GlcNAc(b1-4)GlcNAc
# In short: as §1
# [29] = target: Gal(b1-4)GlcNAc(b1-2)[Gal(b1-4)GlcNAc(b1-4)]Man(a1-3)[GlcNAc(b1-4)][Gal(b1-4)GlcNAc(b1-2)[Gal(b1-4)GlcNAc(b1-6)]Man(a1-6)]Man(b1-4)GlcNAc(b1-4)GlcNAc
# In short: as §1
# [30] = target: Gal(b1-4)GlcNAc(b1-2)[Gal(b1-4)GlcNAc(b1-6)]Man(a1-6)[Gal(b1-4)GlcNAc(b1-2)Man(a1-3)]Man(b1-4)GlcNAc(b1-4)GlcNAc
# In short: as §1
# [31] = target: Gal(b1-4)GlcNAc(b1-2)[Gal(b1-4)GlcNAc(b1-6)]Man(a1-6)[Gal(b1-4)GlcNAc(b1-2)Man(a1-3)]Man(b1-4)GlcNAc(b1-4)[Fuc(a1-6)]GlcNAc
# In short: as §1
# [32] = target: Gal(b1-4)GlcNAc(b1-2)[Gal(b1-4)GlcNAc(b1-6)]Man(a1-6)[GlcNAc(b1-4)][Gal(b1-4)GlcNAc(b1-2)Man(a1-3)]Man(b1-4)GlcNAc(b1-4)GlcNAc
# In short: as §1
# [33] = target: Gal(b1-4)GlcNAc(b1-2)[Gal(b1-4)GlcNAc(b1-6)]Man(a1-6)[GlcNAc(b1-4)][Gal(b1-4)GlcNAc(b1-2)[Gal(b1-4)GlcNAc(b1-4)]Man(a1-3)]Man(b1-4)GlcNAc(b1-4)[Fuc(a1-6)]GlcNAc
# In short: as §1
# [34] = target: Gal(b1-4)GlcNAc(b1-3)Gal(b1-3)GalNAc
# In short: as §1
# [35] = target: Gal(b1-4)GlcNAc(b1-3)Gal(b1-3)GlcNAc
# In short: as §1
# [36] = target: Gal(b1-4)GlcNAc(b1-3)Gal(b1-4)Glc
# In short: as §1
# [37] = target: Gal(b1-4)GlcNAc(b1-3)Gal(b1-4)GlcNAc
# In short: as §1
# [38] = target: Gal(b1-4)GlcNAc(b1-3)Gal(b1-4)GlcNAc(b1-2)Man(a1-3)[Gal(b1-4)GlcNAc(b1-3)Gal(b1-4)GlcNAc(b1-2)Man(a1-6)]Man(b1-4)GlcNAc(b1-4)GlcNAc
# In short: as §1
# [39] = target: Gal(b1-4)GlcNAc(b1-3)Gal(b1-4)GlcNAc(b1-2)Man(a1-3)[Gal(b1-4)GlcNAc(b1-3)Gal(b1-4)GlcNAc(b1-2)Man(a1-6)]Man(b1-4)GlcNAc(b1-4)[Fuc(a1-6)]GlcNAc
# In short: as §1
binder,measurement,setting,value
B1,glycan array binding signal (z-score),[1],0.253
same,glycan array binding signal (z-score),Gal(b1-3)GlcNAc6S,-0.423
same,glycan array binding signal (z-score),[2],-0.356
same,glycan array binding signal (z-score),[3],-0.41
same,glycan array binding signal (z-score),[4],3.61
same,glycan array binding signal (z-score),[5],0.139
same,glycan array binding signal (z-score),[6],-0.426
same,glycan array binding signal (z-score),[7],-0.398
same,glycan array binding signal (z-score),[8],-0.348
same,glycan array binding signal (z-score),[9],-0.433
same,glycan array binding signal (z-score),[10],-0.414
same,glycan array binding signal (z-score),[11],-0.43
same,glycan array binding signal (z-score),Gal(b1-4)Gal,-0.363
same,glycan array binding signal (z-score),[12],-0.43
same,glycan array binding signal (z-score),[13],-0.44
same,glycan array binding signal (z-score),Gal(b1-4)Glc,-0.309
same,glycan array binding signal (z-score),Gal(b1-4)Glc6S,-0.378
same,glycan array binding signal (z-score),Gal(b1-4)GlcNAc,-0.394
same,glycan array binding signal (z-score),[14],-0.392
same,glycan array binding signal (z-score),Gal(b1-4)GlcNAc(b1-2)Man,-0.088
same,glycan array binding signal (z-score),[15],-0.352
same,glycan array binding signal (z-score),[16],-0.391
same,glycan array binding signal (z-score),[17],-0.226
same,glycan array binding signal (z-score),[18],-0.453
same,glycan array binding signal (z-score),[19],-0.449
same,glycan array binding signal (z-score),[20],-0.409
same,glycan array binding signal (z-score),[21],-0.432
same,glycan array binding signal (z-score),[22],-0.298
same,glycan array binding signal (z-score),[23],-0.393
same,glycan array binding signal (z-score),[24],-0.335
same,glycan array binding signal (z-score),[25],-0.417
same,glycan array binding signal (z-score),[26],-0.449
same,glycan array binding signal (z-score),[27],-0.424
same,glycan array binding signal (z-score),[28],-0.44
same,glycan array binding signal (z-score),[29],-0.431
same,glycan array binding signal (z-score),[30],-0.436
same,glycan array binding signal (z-score),[31],-0.42
same,glycan array binding signal (z-score),[32],-0.44
same,glycan array binding signal (z-score),[33],-0.442
same,glycan array binding signal (z-score),[34],-0.4
same,glycan array binding signal (z-score),[35],-0.419
same,glycan array binding signal (z-score),[36],-0.239
same,glycan array binding signal (z-score),[37],-0.414
same,glycan array binding signal (z-score),[38],0.685
same,glycan array binding signal (z-score),[39],-0.299
